Reference: PubChem BioAssay AID504332 (National Center for Advancing Translational Sciences (NCATS), 2011)
The whole screen tested about 350,000 compounds, of which about 31,000 (8.9%) were called active. The shares of active, inactive and inconclusive entries below differ from those in the screen. Calls come from the whole dose curve; as a rule, active = well fitted inhibition curve with a large enough effect; inconclusive = small, poorly fitted or top-dose-only effect; inactive = no such curve, though single readings can be large or run the other way. Potencies beside an inconclusive call are fits to weak or partial responses and may not hold up.

target: Histone-lysine N-methyltransferase EHMT2 (Homo sapiens) (UniProt Q96KQ7); assay: qHTS Assay for Inhibitors of Histone Lysine Methyltransferase G9a; conditions: G9a H3K9 monomethylation, AlphaScreen, 2 h; series mostly up to 59 µM; note: nearly all actives have a fitted effect of over 75% in size
Summary of the method: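 Quantitative HTS format: methyltransferase activity on a biotin-tagged H3K9 peptide is measured by AlphaScreen, using a rabbit anti-monomethyl-H3K9 antibody with streptavidin donor and anti-IgG acceptor beads. Final levels are 20 nM enzyme, 500 nM peptide, 20 uM SAM; 2 h RT.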
Potency is the fitted concentration of half-maximal effect; tags give direction and shape of the fitted curve.

Sequence of UniProt Q96KQ7 (Q96KQ7 whole entry, looked up): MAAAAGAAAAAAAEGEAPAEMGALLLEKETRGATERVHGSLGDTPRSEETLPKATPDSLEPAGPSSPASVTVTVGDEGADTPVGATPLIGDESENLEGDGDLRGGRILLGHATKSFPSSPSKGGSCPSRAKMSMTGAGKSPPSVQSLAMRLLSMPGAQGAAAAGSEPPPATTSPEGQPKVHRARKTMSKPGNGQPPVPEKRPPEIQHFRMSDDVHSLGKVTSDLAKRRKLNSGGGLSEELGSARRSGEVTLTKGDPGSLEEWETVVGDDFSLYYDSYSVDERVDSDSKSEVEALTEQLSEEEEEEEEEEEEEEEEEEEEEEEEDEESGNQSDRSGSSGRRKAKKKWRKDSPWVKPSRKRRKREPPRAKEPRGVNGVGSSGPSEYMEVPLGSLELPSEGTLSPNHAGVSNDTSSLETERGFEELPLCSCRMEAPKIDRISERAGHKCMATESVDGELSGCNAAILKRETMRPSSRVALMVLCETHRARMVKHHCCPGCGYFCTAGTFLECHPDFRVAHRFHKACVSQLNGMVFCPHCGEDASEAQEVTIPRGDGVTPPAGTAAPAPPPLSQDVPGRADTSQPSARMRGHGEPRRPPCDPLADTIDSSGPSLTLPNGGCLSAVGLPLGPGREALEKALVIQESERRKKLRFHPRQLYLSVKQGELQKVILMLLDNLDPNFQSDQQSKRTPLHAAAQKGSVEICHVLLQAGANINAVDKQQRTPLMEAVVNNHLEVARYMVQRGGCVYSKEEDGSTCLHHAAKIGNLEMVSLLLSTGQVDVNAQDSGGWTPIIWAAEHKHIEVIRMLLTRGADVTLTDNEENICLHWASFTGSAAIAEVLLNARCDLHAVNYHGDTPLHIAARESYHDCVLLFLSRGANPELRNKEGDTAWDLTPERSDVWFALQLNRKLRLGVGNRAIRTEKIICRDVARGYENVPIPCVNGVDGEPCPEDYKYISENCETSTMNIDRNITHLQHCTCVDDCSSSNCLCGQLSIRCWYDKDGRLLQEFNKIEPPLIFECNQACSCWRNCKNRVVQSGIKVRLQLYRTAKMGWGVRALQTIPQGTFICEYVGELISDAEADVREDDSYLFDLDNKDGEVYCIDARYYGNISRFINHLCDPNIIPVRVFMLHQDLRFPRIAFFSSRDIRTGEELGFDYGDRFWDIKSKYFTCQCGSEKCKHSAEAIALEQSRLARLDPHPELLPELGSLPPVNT

Row | Structure (SMILES) | Potency
1 | CCOc1ccc2[nH]c(=O)c(CN(Cc3ccco3)Cc3nnnn3Cc3ccccc3)cc2c1 | inconclusive: 0.501 µM [inhibitor, partial curve, poor fit]
2 | CCOC(=O)c1ccccc1NC(=O)Nc1cc2c(cc1N1CCCC1)n(C)c(=O)n2C | inconclusive: 12.6 µM [inhibitor, partial curve]
3 | O=C(/C=C/c1cccc([N+](=O)[O-])c1)NC(=S)Nc1ccc(CN2CCOCC2)cc1 | inconclusive: 20 µM [inhibitor, partial curve, poor fit]
4 | O=C(Nc1ccc(C(=O)N2CCCC2)cc1)Nc1ccc(Cl)cc1Cl | inconclusive: 89.1 µM [inhibitor, single point]
5 | Cc1cccc(NC(=O)c2csnn2)n1 | inconclusive: 7.08 µM [inhibitor, partial curve, poor fit]
6 | CCOc1ccc(NC(=O)CSc2nnc(CNC(=O)C34CC5CC(CC(C5)C3)C4)n2CC)cc1 | inactive
7 | COc1ccc(-c2nc(CN3CCN(c4ncnc5ccccc45)CC3)c(C)o2)c(OC)c1 | inconclusive: 50.1 µM [inhibitor, partial curve, poor fit]
8 | NS(=O)(=O)c1cccc(NC(=O)COC(=O)COc2ccc3ccccc3c2)c1 | inconclusive: 56.2 µM [inhibitor, partial curve]
9 | O=C(NCc1ccco1)C1CN(S(=O)(=O)c2ccccc2)CCN1S(=O)(=O)c1ccccc1 (stereo unspecified) | inconclusive: 79.4 µM [inhibitor, partial curve, poor fit]
10 | O=C(CCN1C(=O)c2ccccc2C1=O)OCN1C(=O)c2ccccc2C1=O | inconclusive: 100 µM [inhibitor, single point]
11 | O=C1c2ccccc2C(Nc2ccc(F)c(Cl)c2)N1Cc1ccco1 (stereo unspecified) | active: 44.7 µM
12 | Cc1ccc(NC(=O)CNc2cccc(S(=O)(=O)N3CCOCC3)c2)cc1F | inconclusive: 50.1 µM [inhibitor, partial curve]
13 | O=C1CCCN1c1ccc(C(=O)N(Cc2nnc(-c3ccccc3Cl)o2)C2CC2)cc1 | active: 12.6 µM
14 | O=C(NCc1cccs1)C1CCCN(S(=O)(=O)c2ccc3c(c2)OCO3)C1 (stereo unspecified) | inconclusive: 89.1 µM [inhibitor, single point]
15 | C/C(N)=C(/C#N)C(=O)CSc1cc(Cl)ccc1Cl | inconclusive: 0.316 µM [inhibitor, full curve, poor fit]
16 | CC(=O)N1N=C(c2c(-c3ccccc3)c3cc(C)ccc3[nH]c2=O)CC1c1ccco1 (stereo unspecified) | inconclusive: 35.5 µM [inhibitor, partial curve, poor fit]
